Measurements as given in patent US5831051, “Receptor for peptide hormones involved in energy homeostasis, and method and compositions for use thereof” (The Rockefeller University, dated 1998).

Target: T1, recombinant human PACAP/VIP R-2 receptor (human)
T1 chain: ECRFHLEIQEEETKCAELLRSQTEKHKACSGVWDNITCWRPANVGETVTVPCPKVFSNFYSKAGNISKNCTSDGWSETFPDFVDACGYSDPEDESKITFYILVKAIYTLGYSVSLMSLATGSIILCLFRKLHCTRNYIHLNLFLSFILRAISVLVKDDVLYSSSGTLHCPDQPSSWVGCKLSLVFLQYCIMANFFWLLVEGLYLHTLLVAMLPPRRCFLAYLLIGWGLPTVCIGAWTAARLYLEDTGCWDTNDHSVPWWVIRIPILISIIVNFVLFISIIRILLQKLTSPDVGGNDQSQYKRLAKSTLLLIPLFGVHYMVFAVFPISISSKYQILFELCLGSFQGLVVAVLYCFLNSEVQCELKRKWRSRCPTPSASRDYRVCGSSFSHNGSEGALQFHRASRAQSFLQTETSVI
Assay: competitive displacement of 125I-VIP on intact CHL cells expressing the receptor

B1: glucagon (ligand)
peptide: not shown
- binding result: no binding
